Assay results: PubChem BioAssay AID1347165 (National Center for Advancing Translational Sciences (NCATS), 2019)
“And” between values parts separate entries of the source, which are not always exact repeats. Equal entries are not always repeated. About 5,700 (2.6%) of roughly 220,000 compounds were called active. The inconclusive results got no clear call from the source; some entries with a clear call stand among them for comparison. Calls come from the whole dose curve; as a rule, active = well fitted inhibition curve with a large enough effect; inconclusive = small, poorly fitted or top-dose-only effect; inactive = no such curve, though single readings can be large or run the other way. Where the call is inconclusive, the potency comes from a doubtful curve fit.

Each compound was assayed against Lysine-specific demethylase 5B (Homo sapiens) (UniProt Q9UGL1) (assay: Primary screen for KDM5B Histone Demethylases FDH-coupled qHTS). Conditions: FDH-coupled NADH fluorescence (FDH is formaldehyde dehydrogenase); series mostly up to 57.7 µM.
Sequence of UniProt Q9UGL1 (Q9UGL1 whole entry, looked up): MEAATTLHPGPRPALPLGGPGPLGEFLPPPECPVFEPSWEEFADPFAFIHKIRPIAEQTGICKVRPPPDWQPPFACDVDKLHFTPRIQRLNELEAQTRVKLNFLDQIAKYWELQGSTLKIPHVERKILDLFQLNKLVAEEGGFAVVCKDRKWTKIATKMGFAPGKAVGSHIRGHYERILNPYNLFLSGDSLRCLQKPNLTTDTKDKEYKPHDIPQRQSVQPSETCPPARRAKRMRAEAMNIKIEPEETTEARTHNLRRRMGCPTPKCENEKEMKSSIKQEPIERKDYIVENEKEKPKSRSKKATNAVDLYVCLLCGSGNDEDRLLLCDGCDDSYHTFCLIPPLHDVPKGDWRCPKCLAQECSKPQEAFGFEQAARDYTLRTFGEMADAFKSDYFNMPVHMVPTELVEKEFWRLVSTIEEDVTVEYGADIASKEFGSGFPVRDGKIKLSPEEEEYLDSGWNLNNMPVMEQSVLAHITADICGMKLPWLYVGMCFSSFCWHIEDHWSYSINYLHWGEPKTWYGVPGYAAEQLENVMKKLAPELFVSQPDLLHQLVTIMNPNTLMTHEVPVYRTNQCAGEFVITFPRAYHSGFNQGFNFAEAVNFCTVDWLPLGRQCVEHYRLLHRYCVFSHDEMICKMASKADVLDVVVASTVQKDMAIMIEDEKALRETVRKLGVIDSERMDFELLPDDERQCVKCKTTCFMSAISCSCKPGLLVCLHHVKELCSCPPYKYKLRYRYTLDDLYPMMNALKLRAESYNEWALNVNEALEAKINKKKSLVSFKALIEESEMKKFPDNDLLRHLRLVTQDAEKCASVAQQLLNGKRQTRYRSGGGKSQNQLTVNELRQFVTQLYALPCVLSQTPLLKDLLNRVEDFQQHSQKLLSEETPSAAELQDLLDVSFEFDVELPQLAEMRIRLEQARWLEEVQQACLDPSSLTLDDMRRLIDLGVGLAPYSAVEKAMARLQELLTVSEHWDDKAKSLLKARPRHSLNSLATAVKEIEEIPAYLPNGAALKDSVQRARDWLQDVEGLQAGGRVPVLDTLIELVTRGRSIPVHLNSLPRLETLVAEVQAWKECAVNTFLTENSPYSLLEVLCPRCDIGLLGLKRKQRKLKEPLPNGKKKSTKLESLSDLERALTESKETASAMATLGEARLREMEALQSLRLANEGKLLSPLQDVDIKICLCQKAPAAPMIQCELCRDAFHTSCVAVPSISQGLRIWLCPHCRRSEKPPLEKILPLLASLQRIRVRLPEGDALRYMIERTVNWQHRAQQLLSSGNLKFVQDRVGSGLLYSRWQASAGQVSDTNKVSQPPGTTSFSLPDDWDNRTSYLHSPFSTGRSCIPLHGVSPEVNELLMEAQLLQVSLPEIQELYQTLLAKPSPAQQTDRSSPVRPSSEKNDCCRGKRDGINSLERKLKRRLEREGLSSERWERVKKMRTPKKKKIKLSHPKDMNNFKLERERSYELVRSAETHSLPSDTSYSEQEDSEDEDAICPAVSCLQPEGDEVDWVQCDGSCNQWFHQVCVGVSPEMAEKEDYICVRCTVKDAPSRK
Outline: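 Here, H3K4me3 peptide (12.5 µM in substrate mix) is demethylated by KDM5BΔAP, 200 nM final, after 10 min compound exposure. Formaldehyde product is coupled through FDH (0.25 U/mL in mix) to NADH fluorescence; 30-min ΔRFU feeds dose-response curves.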
Note: nearly all actives have a fitted effect of over 70% in size.
Potency is the fitted concentration of half-maximal effect; tags give direction and shape of the fitted curve.

How did the Potency turn out when `CN1CCN(CCCN2C(=O)c3ccccc3C2C(=O)NC2CCCCC2)CC1` (stereo not given) was run?
The Potency was “inactive”.

How did the Potency turn out when `COc1ccc(NC(=O)c2nnn(Cc3nc(-c4cc(OC)c(OC)c(OC)c4)oc3C)c2C)cc1Cl` was run?
Its Potency is inconclusive: 1.26 µM [inhibitor, full curve, poor fit].

How did the Potency turn out when `CC1CCN(CC(=O)NCCc2c[nH]c3ccccc23)CC1` was run?
Its Potency is “inactive”.

`Cc1cccc(Cl)c1CNC(=O)c1c(C)noc1-c1ccccc1Cl` was tested. Which Potency did it give?
Its Potency is “inactive”.

Which Potency does the source give for `COc1ccccc1NC(=O)C1=C(C)Nc2nc(SCc3ccccc3)nn2C1c1cccc(O)c1` (stereo not given) here?
Its Potency is inconclusive: 35.5 µM [inhibitor, single point].

For `CCN1CCN(c2nc3ccccc3nc2C(C#N)S(=O)(=O)c2cccc(C)c2)CC1` (stereo not given), which Potency is on record?
Its Potency is inconclusive: 15.8 µM [inhibitor, partial curve, poor fit].

How did the Potency turn out when `CC(C)[C@@H](N)C(=O)N1CCC(n2nccc2NC(=O)c2ccccc2)CC1` was run?
Its Potency is inconclusive: 10 µM [inhibitor, partial curve].

Which Potency does the source give for `CC1(C(=O)NNC(=O)c2ccc(=O)oc2)CC1Br` (stereo not given) here?
Its Potency is inconclusive: 25.1 µM [inhibitor, partial curve, poor fit].

`CC1(C)CN(C(=O)c2ccccc2N2CCC(=O)NC2=O)CC[C@]1(C)O` was tested. Which Potency did it give?
The Potency was inconclusive: 20 µM [inhibitor, partial curve, poor fit].

With `COc1ccccc1CNC(=O)C(C)C` as the compound, how does the Potency read?
Its Potency is “inactive”.

Which Potency does the source give for `COc1ccc(NC(=O)c2ccc(NC(=O)N3CCSc4ncccc43)cc2)cc1` here?
Its Potency is inconclusive: 25.1 µM [inhibitor, partial curve, poor fit].

`COCCN1CCCCCC(O)c2cc(C(=O)NCCc3ccccc3)ccc21` (stereo not given) was tested. Which Potency did it give?
Its Potency is “inactive”.

How did the Potency turn out when `Cc1cc(C(F)(F)F)c(C#N)c(SCc2cccnc2)n1` was run?
The Potency was inconclusive: 39.8 µM [inhibitor, single point].

Which Potency does the source give for `CN1CCNc2cc(-c3ccc(N4CCOCC4)cc3)ncc2C1` here?
The Potency was active: 28.2 µM.

With `Cc1ccc(S(=O)(=O)c2nc(-c3cccs3)oc2SCc2ccc(F)cc2)cc1` as the compound, how does the Potency read?
The Potency was inconclusive: 35.5 µM [inhibitor, single point].

How did the Potency turn out when `O=C(N[C@@H]1C[C@H](Cn2cc(-c3cccnc3)nn2)[C@@H](O)[C@H]1O)C1CCCC1` was run?
The Potency was inconclusive: 35.5 µM [inhibitor, single point].

Which Potency does the source give for `COc1ccc(-c2cc(C(=O)NCCO)c3ccccc3n2)cc1` here?
Its Potency is inconclusive: 22.4 µM [inhibitor, partial curve, poor fit].

`Cc1cnc(C(=O)N2CCCC2c2nc(C3CCOCC3)no2)cn1` (stereo not given) was tested. Which Potency did it give?
Its Potency is inconclusive: 31.6 µM [inhibitor, partial curve, poor fit].

Which Potency does the source give for `CCN1c2cc(C(=O)NCc3cccc(C)c3)ccc2C(=O)N2CCCCC21` (stereo not given) here?
Its Potency is inconclusive: 25.1 µM [inhibitor, partial curve, poor fit].

`COCCOc1ccnc(-c2noc([C@@H]3CCCN3Cc3ccc(Cl)cc3)n2)c1` was tested. Which Potency did it give?
Its Potency is “inactive”.

How did the Potency turn out when `CCN(CCCNC(=O)CC1=C2CCCCC2NC1=O)c1ccccc1` (stereo not given) was run?
Its Potency is “inactive”.

With `O=C(Nc1nc(-c2ccco2)cs1)c1ccccc1Br` as the compound, how does the Potency read?
Its Potency is inconclusive: 28.2 µM [inhibitor, single point].

How did the Potency turn out when `Cc1cccc(C(=O)NC2CCN(c3cc(-c4ccc(F)cc4)[nH]n3)CC2)c1` was run?
The Potency was inconclusive: 0.631 µM [inhibitor, partial curve, poor fit].

With `CCOC(=O)c1ccccc1NC(=O)NCc1c(-n2cccc2)sc2c1CCN(C)C2` as the compound, how does the Potency read?
Its Potency is inconclusive: 11.2 µM [inhibitor, partial curve, poor fit].

For `O=C(NCCc1ccco1)C(=O)NCC1OCCCN1S(=O)(=O)c1ccc(F)cc1` (stereo not given), which Potency is on record?
Its Potency is inconclusive: 28.2 µM [inhibitor, single point].

With `C(#Cc1cc(-c2ccccc2)nc(-c2ccccc2)c1)c1ccccc1` as the compound, how does the Potency read?
The Potency was “inactive”.

`COc1cc(OC)cc(-c2onc(C)c2C(=O)NCc2ccccc2)c1` was tested. Which Potency did it give?
The Potency was inconclusive: 35.5 µM [inhibitor, single point].

Which Potency does the source give for `O=C(NC(NCc1cccnc1)(C(F)(F)F)C(F)(F)F)c1cccnc1` here?
Its Potency is “inactive”.

`Cn1cc(-c2cc(-c3ccncc3)c3cncn3c2)cn1` was tested. Which Potency did it give?
The Potency was active: 31.6 µM.

How did the Potency turn out when `COCCn1c(SCC(=O)c2ccc3c(c2)OCCCO3)nnc1-c1ccc(Cl)cc1` was run?
The Potency was “inactive”.

For `Cc1cc(C(=O)NCc2ccccc2F)c2ccccc2n1`, which Potency is on record?
Its Potency is “inactive”.

`Cc1c(C)c2ccc(OCC(=O)NCCN(C)C)c(C)c2oc1=O` was tested. Which Potency did it give?
The Potency was inconclusive: 25.1 µM [inhibitor, partial curve, poor fit].

`COc1cccc(CCC(=O)N2CCC3(CC2)N=C(c2ccc(Cl)cc2)NO3)c1` was tested. Which Potency did it give?
The Potency was inconclusive: 20 µM [inhibitor, single point].

Which Potency does the source give for `CC(=O)Nc1cccc(NC(=O)c2cc3ccccc3n2C)c1` here?
The Potency was “inactive”.

`Cc1cccc(C(=O)NCCC(=O)NCC2CCCCC2)c1` was tested. Which Potency did it give?
Its Potency is “inactive”.

Which Potency does the source give for `Cc1noc(C)c1-c1cc2c(cc(C)n2C)c(-c2cccc([S+](C)(=O)[O-])c2)n1` here?
Its Potency is active: 25.1 µM.

For `COc1ccc(Cl)cc1NC(=O)Cn1c(=O)n(-c2ccc(C)cc2)c(=O)c2ccc(C(=O)NCc3ccccc3Cl)cc21`, which Potency is on record?
Its Potency is inconclusive: 1.78 µM [inhibitor, partial curve, poor fit].

How did the Potency turn out when `COc1ccc(/C=C(\C#N)c2nc3cc(C)c(C)cc3[nH]2)cc1Br` was run?
Its Potency is “inactive”.

How did the Potency turn out when `O=c1ncn(Cc2ccccc2)c2ccc(NCCOc3ccccc3)nc12` was run?
The Potency was active: 35.5 µM.

`CN(C)C[C@@H]1CN(Cc2ccccc2)C[C@H]1NC(=O)CCn1cccn1` was tested. Which Potency did it give?
Its Potency is “inactive”.

Which Potency does the source give for `O=C1NCc2ccccc2CC12CCCN2Cc1ccsc1` (stereo not given) here?
Its Potency is “inactive”.

Which Potency does the source give for `CCCc1nc(-c2cc3cc(C)ccc3[nH]c2=O)no1` here?
The Potency was inconclusive: 25.1 µM [inhibitor, partial curve, poor fit].

With `CC(=O)OCc1ccc(C(=O)NC(C)C(N)=O)cc1` (stereo not given) as the compound, how does the Potency read?
The Potency was “inactive”.

Which Potency does the source give for `Cc1sc(NC(=O)CSc2nc3ccccc3o2)nc1-c1ccccc1` here?
The Potency was “inactive”.

Which Potency does the source give for `O=C(N[C@@H]1CN(c2ncccn2)C[C@H]1CO)c1ccc2c(c1)OCO2` here?
Its Potency is inconclusive: 25.1 µM [inhibitor, partial curve, poor fit].

Which Potency does the source give for `COc1ccc(-n2nnc(C(=O)NCc3cccs3)c2N)cc1OC` here?
The Potency was “inactive”.

For `CCOC(=O)c1cc2c(=O)n3ccccc3nc2n(CCCOC)c1=NC(=O)c1c(-c2c(F)cccc2Cl)noc1C`, which Potency is on record?
The Potency was inconclusive: 3.98 µM [inhibitor, full curve, poor fit].

With `COC(=O)c1cnc(NC(=O)C(NC(=O)c2ccccc2Br)C(C)C)s1` (stereo not given) as the compound, how does the Potency read?
The Potency was “inactive”.

How did the Potency turn out when `CC(C)C1=NOC2(CCN(Cc3ccc(C#N)cc3)C2)C1` (stereo not given) was run?
The Potency was inconclusive: 89.1 µM [inhibitor, partial curve, poor fit].

With `CCOC(=O)c1ccc(Nc2c(-c3ccc(OC)cc3)nc3nc[nH]n23)cc1` as the compound, how does the Potency read?
The Potency was inconclusive: 28.2 µM [inhibitor, partial curve, poor fit].

Which Potency does the source give for `Cc1ccccc1Cn1c(=O)n(Cc2ccco2)c(=O)c2sc3ccccc3c21` here?
The Potency was inconclusive: 15.8 µM [inhibitor, partial curve, poor fit] and inconclusive: 28.2 µM [inhibitor, single point].

`COc1ccc(Oc2coc3cc(OCc4ccc([N+](=O)[O-])cc4)ccc3c2=O)cc1` was tested. Which Potency did it give?
Its Potency is “inactive”.

For `Cc1ccc2nc(/C(C#N)=C\c3ccc(O)cc3)[nH]c2c1`, which Potency is on record?
Its Potency is “inactive”.

How did the Potency turn out when `O=C(NCCOc1ccccc1)c1nc2c(o1)CCN(Cc1ccc3[nH]ccc3c1)CC2` was run?
The Potency was active: 39.8 µM.

`CCCn1ccc2c(OCC(=O)Nc3ccccc3C(=O)OCC)cccc2c1=O` was tested. Which Potency did it give?
Its Potency is “inactive”.

For `Cc1nc2c(c(C)nn2-c2ccccc2)c(C)c1CCC(=O)Nc1ccccc1`, which Potency is on record?
The Potency was inconclusive: 1.78 µM [inhibitor, full curve, poor fit].

`O=C(O)[C@@H]1CN(Cc2cnc(N3CCOCC3)nc2)C[C@H]1c1ccccc1` was tested. Which Potency did it give?
Its Potency is “inactive”.

With `c1cc(Cn2ccc3c(N4CCOCC4)nc(-c4ccc5cn[nH]c5c4)cc32)ccn1` as the compound, how does the Potency read?
The Potency was active: 35.5 µM.

With `COc1ccc(-c2nn(-c3ccccc3C)cc2CN(C)C(C)c2ccncn2)cc1F` (stereo not given) as the compound, how does the Potency read?
Its Potency is “inactive”.

For `COC(=O)C1=C(C)N=C2SC=C(CC(=O)N3CCCC3)N2C1c1ccc(C)cc1C` (stereo not given), which Potency is on record?
Its Potency is inconclusive: 28.2 µM [inhibitor, partial curve, poor fit].

Which Potency does the source give for `O=C(Nc1ccc(S(=O)(=O)N(Cc2ccccc2)c2ccccc2)cc1)c1ccccc1F` here?
The Potency was “inactive”.

With `Cc1oc2c(c1C(=O)NCCN1CCCC(C)C1)CN(Cc1cccc(F)c1)CC2` (stereo not given) as the compound, how does the Potency read?
Its Potency is inconclusive: 22.4 µM [inhibitor, partial curve, poor fit].

For `Cc1cc(Nc2cccc(Cl)c2)nc2ccc(NC(=O)CC3CCCCC3)cc12`, which Potency is on record?
The Potency was inconclusive: 2 µM [inhibitor, full curve, poor fit].

For `COc1ccc(CCNC(=O)c2cc(Nc3ccccc3)nc3ccccc23)cc1OC`, which Potency is on record?
The Potency was inconclusive: 14.1 µM [inhibitor, partial curve, poor fit].

How did the Potency turn out when `Cc1cccc([C@H]2C[C@@H](O)[C@@H](O)[C@@H]2NS(=O)(=O)c2ccccc2)c1` was run?
The Potency was “inactive”.

Which Potency does the source give for `CCn1c(C(=O)Nc2ccccc2C(=O)OC)cc2sc(Cl)cc21` here?
The Potency was inconclusive: 11.2 µM [inhibitor, partial curve, poor fit].

For `COC(=O)c1c(NC(=O)CCCOc2ccc(C)cc2)sc2c1CCCC2`, which Potency is on record?
The Potency was inconclusive: 6.31 µM [inhibitor, partial curve, poor fit].

Which Potency does the source give for `O=S(=O)(NCCc1csc(-c2cccc(F)c2)n1)c1cc(F)ccc1F` here?
The Potency was inconclusive: 25.1 µM [inhibitor, partial curve, poor fit].

For `O=C(Cn1ncc2ccccc2c1=O)Nc1ncc(Cc2ccc(C(F)(F)F)cc2)s1`, which Potency is on record?
Its Potency is “inactive”.

With `CCCOc1ccc(OC(=O)c2ccc(-c3ccc(CCC)cn3)cc2)cc1` as the compound, how does the Potency read?
Its Potency is inconclusive: 35.5 µM [inhibitor, single point].
